# This is one part of the list. Shown are side measurements of this screen, not its main read-out; they come without a call. Compounds called inactive in the main read-out are mostly missing here. The note in brackets gives the kind of curve behind each potency; many fits are weak.
# Test: Natriuretic polypeptide receptor (hNpr1) antagonism - Confirmation; further: nearly all actives have a fitted effect of over 70% in size
# Settings: HEK293 hNpr1 cGMP GloSensor luminescence, ANP-stimulated; measured here: HEK-hNpr1 cytotoxicity, CellTiter-Glo
# Method in brief: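 HEK293 cells expressing hNpr1 and the pGS-40F GloSensor cGMP sensor, loaded with 2% GloSensor reagent for 2 h, then treated 30 min with compound at room temperature. Luciferase luminescence read before and 20 min after 0.1 nM hNppA stimulation.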
# Tags describe the fitted curve by direction and shape.
row,Structure (SMILES),CC50
1,Cc1ccccc1-c1cnc2[nH]cc(CC(=O)NCc3cccnc3)c2c1,"28 µM [falling, partial curve]"
2,COc1ccc(-c2noc(CC3CCN(C(=O)c4ccc(OC)nc4)CC3)n2)cc1,"8.62 µM [falling, partial curve]"
3,COc1ccc(-c2noc(COC(=O)C3=CN(C)S(=O)(=O)N=C3C)n2)cc1,"17.2 µM [falling, partial curve]"
4,COc1ccccc1CN1CCc2nc(C(=O)Nc3ccc(Cl)cc3)oc2CC1,"25 µM [falling, partial curve]"
5,CC(C)c1ccc(NC(=O)C2CCN(c3cc(C(F)(F)F)ncn3)CC2)cc1,"15.3 µM [falling, partial curve]"
6,CCN(CC)C(=O)N1CC(Oc2ccc(-c3nc(C)no3)cc2)C1,"21.7 µM [falling, partial curve, poor fit]"
7,N#Cc1cccnc1N1CCC(NC(=O)c2ccc3nccn3c2)CC1,"19.3 µM [falling, partial curve]"
8,C[S+](=O)([O-])CCn1ncc2cc(OCc3cccc(-c4ccc(Cl)cc4)c3)ccc21,"31.4 µM [falling, partial curve, poor fit]"
9,O=C(c1cccc(F)c1)N1CCC(Cc2nc(-c3ccccc3)no2)CC1,"15.3 µM [falling, partial curve]"
10,Cc1nc(N2CCC(C(=O)NC3CCCCCC3)CC2)cc(C(F)(F)F)n1,"13.7 µM [falling, partial curve]"
11,COc1ccc(C2=NOC3(CCN([S+](=O)([O-])c4cccc(C(F)(F)F)c4)C3)C2)cc1 (stereo not given),"30.6 µM [falling, single point]"
12,OC1CC(c2cc(N3CCC(Cc4noc(C5CC5)n4)CC3)ncn2)C1 (stereo not given),"0.968 µM [falling, full curve]"
13,CN(C)c1ccc(C(=O)NCC2CCN(c3cc(-c4ccc(Cl)cc4)[nH]n3)CC2)cc1,"19.3 µM [falling, partial curve]"
14,O=C(C1COc2ccccc2O1)N1CCN(c2cc(-c3ccc(Cl)cc3)[nH]n2)CC1 (stereo not given),"24.3 µM [falling, partial curve]"
15,CCCc1ccc(S(=O)(=O)N(C)CC2CCOCC2)cc1,"27.3 µM [falling, single point]"
16,CN1CCN(Cc2ccc(Nc3cnc4ccc(-c5ccccc5)nn34)cc2)CC1,"25 µM [falling, partial curve]"
17,COc1ccc(-c2noc(CC3CCN(C(=O)c4cc(Cl)ccc4F)CC3)n2)cc1,"17.2 µM [falling, partial curve]"
18,COc1ccc(CC(=O)NC2CCN(c3cc(-c4ccc(Cl)cc4)[nH]n3)CC2)cc1OC,"24.3 µM [falling, partial curve]"
19,COc1cccc(CNC(=O)C2CCN(c3cc(C(F)(F)F)ncn3)CC2)c1,"21.7 µM [falling, partial curve]"
20,O=C(c1cccs1)N1CCC2(CC1)CC(Cc1ccc(F)cc1)CCO2 (stereo not given),"24.3 µM [falling, partial curve]"

row,Structure (SMILES),CC50
1,O=C(c1cccc(Cl)c1)N1CCCC(n2cc(-c3nc(-c4ccccc4)no3)nn2)C1 (stereo not given),"24.3 µM [falling, partial curve]"
2,Cc1ccccc1OCC(=O)NC1CCN(c2cc(-c3ccccc3)[nH]n2)CC1,"24.3 µM [falling, partial curve]"
3,COc1cccc(-c2cc(C3CCN(S(=O)(=O)c4ccc(C(C)=O)cc4)CC3)[nH]n2)c1,"24.3 µM [falling, partial curve]"
4,O=C(Nc1ccccc1)c1cnc2c(c1)N(C(=O)Cc1ccc(O)cc1)CCC2,"35.3 µM [falling, partial curve]"
5,Cc1ccsc1C(=O)N1CCC2(CC1)N=C(c1cccc(Br)c1)NO2,"21.7 µM [falling, partial curve]"
6,CC1=NS(=O)(=O)N(C)C=C1C(=O)OCc1nc(-c2ccccc2F)no1,"43.2 µM [falling, single point]"
7,CC1=C[C@@H](CNC(=O)C2CC2)[C@H](C(C)C)C[C@H]1Cc1nc2ccccc2n1C,"35.3 µM [falling, partial curve]"
8,O=C(NCc1ccccc1)c1nc2c(o1)CCN(Cc1ccc(F)cc1)CC2,"35.3 µM [falling, partial curve]"
9,O=C1OCC2=C1C(c1ccc(Cl)cc1)NC(=O)N2CC(=O)N1CCC(Cc2ccccc2)CC1 (stereo not given),"21.7 µM [falling, partial curve]"
10,CC(C)c1noc(-c2cn(C3CCN(C(=O)c4ccc(F)cc4Cl)C3)nn2)n1 (stereo not given),"21.7 µM [falling, partial curve]"
11,COc1ccc(C2Cn3nnc(C(=O)NC4CCCCCCC4)c3CO2)cc1 (stereo not given),"24.3 µM [falling, partial curve]"
12,Cc1nn2c(c1-c1ccccc1-c1ccccc1)N(Cc1ccc(O)cc1)CCC2,"62.7 µM [falling, single point]"
13,O=C(NCc1ccccc1)c1nc2c(o1)CCN(Cc1ccc(F)c(Cl)c1)CC2,"31.4 µM [falling, partial curve]"
14,Cc1cc(OCCN2CCOCC2)c(C)c2c1CC[C@@H]([C@H](C)C(=O)N1CCCCC1)C2,"31.4 µM [falling, partial curve]"
15,COCc1nc(-c2ccc(OC3CCN(C(=O)c4nn(C)c5ccccc45)C3)cc2)no1 (stereo not given),"21.7 µM [falling, partial curve]"
16,O=C(NC1CCCCC1)N1CCC(c2noc(-c3ccccc3)n2)C1 (stereo not given),"30.6 µM [falling, single point]"
17,O=C1COc2ccc(-c3ccc(Cl)cc3)nc2CN1Cc1ccccc1,"62.7 µM [falling, single point]"
18,CN(Cc1cccnc1)c1ccc2ncc(Nc3cc(F)cc(N4CCOCC4)c3)n2n1,"31.4 µM [falling, partial curve, poor fit]"
19,CCOc1ccccc1C(=O)NC1CCN(c2cc(C(F)(F)F)nc(C)n2)CC1,"21.7 µM [falling, partial curve]"
20,O=C(N1CCN(c2cc(-c3ccc(Cl)cc3)[nH]n2)CC1)C1(c2ccccc2)CC1,"24.3 µM [falling, partial curve]"
